Laboratory results published in article PMC9911399, “Two distinct binding modes provide the RNA-binding protein RbFox with extraordinary sequence specificity”.
Positions count from the first letter of the chain named. Some of the results follow.

T1: RBFOX1 RRM RbFoxmut (Fox-RRM*) (Homo sapiens, UniProt Q9NWB1 109-208, R118D;E147R;N151S;E152T)
T1 sequence: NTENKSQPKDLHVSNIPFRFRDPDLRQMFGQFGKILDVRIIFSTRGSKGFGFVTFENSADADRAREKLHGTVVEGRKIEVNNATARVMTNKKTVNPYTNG

B1: ACCUCUU (DNA:RNA)
RNA: GGGAGACCGGAAUUCAGAUUGUCCACCUCUUUUAAAUCCCGUCGUAGCCACCA
DNA 1: CAATCTGAATTCCGGTCTCCC
DNA 2: TGGTGGCTACGACGGGATT
B2: CCCCAGA (DNA:RNA)
RNA: B1 RNA with A25C, U28C, C29A, U30G, U31A
DNA 1: CAATCTGAATTCCGGTCTCCC
DNA 2: TGGTGGCTACGACGGGATT
B3: GUACGCU (DNA:RNA)
RNA: B1 RNA with A25G, C26U, C27A, U28C, C29G, U30C
DNA 1: CAATCTGAATTCCGGTCTCCC
DNA 2: TGGTGGCTACGACGGGATT
B4: GAUUGCA (DNA:RNA)
RNA: B1 RNA with A25G, C26A, C27U, C29G, U30C, U31A
DNA 1: CAATCTGAATTCCGGTCTCCC
DNA 2: TGGTGGCTACGACGGGATT
B5: AAGGCGG (DNA:RNA)
RNA: B1 RNA with C26A, C27G, U28G, U30G, U31G
DNA 1: CAATCTGAATTCCGGTCTCCC
DNA 2: TGGTGGCTACGACGGGATT
B6: CGGUUGA (DNA:RNA)
RNA: B1 RNA with A25C, C26G, C27G, C29U, U30G, U31A
DNA 1: CAATCTGAATTCCGGTCTCCC
DNA 2: TGGTGGCTACGACGGGATT
B7: CACACCC (DNA:RNA)
RNA: B1 RNA with A25C, C26A, U28A, U30C, U31C
DNA 1: CAATCTGAATTCCGGTCTCCC
DNA 2: TGGTGGCTACGACGGGATT
B8: UAGCUCC (DNA:RNA)
RNA: GGGAGACCGGAAUUCAGAUUGUCCUAGCUCCUUAAAUCCCGUCGUAGCCACCA
DNA 1: CAATCTGAATTCCGGTCTCCC
DNA 2: TGGTGGCTACGACGGGATT
B9: AAAACGG (DNA:RNA)
RNA: B1 RNA with C26A, C27A, U28A, U30G, U31G
DNA 1: CAATCTGAATTCCGGTCTCCC
DNA 2: TGGTGGCTACGACGGGATT
B10: GAUAACA (DNA:RNA)
RNA: B8 RNA with U25G, G27U, C28A, U29A, C31A
DNA 1: CAATCTGAATTCCGGTCTCCC
DNA 2: TGGTGGCTACGACGGGATT
B11: AUAUCGU (DNA:RNA)
RNA: B1 RNA with C26U, C27A, U30G
DNA 1: CAATCTGAATTCCGGTCTCCC
DNA 2: TGGTGGCTACGACGGGATT
B12: CGGAGGA (DNA:RNA)
RNA: B8 RNA with U25C, A26G, C28A, U29G, C30G, C31A
DNA 1: CAATCTGAATTCCGGTCTCCC
DNA 2: TGGTGGCTACGACGGGATT
B13: AUUAGCC (DNA:RNA)
RNA: B8 RNA with U25A, A26U, G27U, C28A, U29G
DNA 1: CAATCTGAATTCCGGTCTCCC
DNA 2: TGGTGGCTACGACGGGATT
B14: UACUCGU (DNA:RNA)
RNA: B1 RNA with A25U, C26A, U30G
DNA 1: CAATCTGAATTCCGGTCTCCC
DNA 2: TGGTGGCTACGACGGGATT
B15: UACCAUA (DNA:RNA)
RNA: B8 RNA with G27C, U29A, C30U, C31A
DNA 1: CAATCTGAATTCCGGTCTCCC
DNA 2: TGGTGGCTACGACGGGATT
B16: GUUAGGU (DNA:RNA)
RNA: B1 RNA with A25G, C26U, C27U, U28A, C29G, U30G
DNA 1: CAATCTGAATTCCGGTCTCCC
DNA 2: TGGTGGCTACGACGGGATT
B17: UAAAGAA (DNA:RNA)
RNA: B8 RNA with G27A, C28A, U29G, C30A, C31A
DNA 1: CAATCTGAATTCCGGTCTCCC
DNA 2: TGGTGGCTACGACGGGATT
B18: AGCGGUU (DNA:RNA)
RNA: B1 RNA with C26G, U28G, C29G
DNA 1: CAATCTGAATTCCGGTCTCCC
DNA 2: TGGTGGCTACGACGGGATT
B19: AUUGCCC (DNA:RNA)
RNA: B1 RNA with C26U, C27U, U28G, U30C, U31C
DNA 1: CAATCTGAATTCCGGTCTCCC
DNA 2: TGGTGGCTACGACGGGATT
B20: GGGCGUA (DNA:RNA)
RNA: B8 RNA with U25G, A26G, U29G, C30U, C31A
DNA 1: CAATCTGAATTCCGGTCTCCC
DNA 2: TGGTGGCTACGACGGGATT
B21: CGCGGGA (DNA:RNA)
RNA: B1 RNA with A25C, C26G, U28G, C29G, U30G, U31A
DNA 1: CAATCTGAATTCCGGTCTCCC
DNA 2: TGGTGGCTACGACGGGATT
B22: GGUCGAU (DNA:RNA)
RNA: B1 RNA with A25G, C26G, C27U, U28C, C29G, U30A
DNA 1: CAATCTGAATTCCGGTCTCCC
DNA 2: TGGTGGCTACGACGGGATT
B23: UCCUCAA (DNA:RNA)
RNA: B1 RNA with A25U, U30A, U31A
DNA 1: CAATCTGAATTCCGGTCTCCC
DNA 2: TGGTGGCTACGACGGGATT
B24: GCUAACU (DNA:RNA)
RNA: B1 RNA with A25G, C27U, U28A, C29A, U30C
DNA 1: CAATCTGAATTCCGGTCTCCC
DNA 2: TGGTGGCTACGACGGGATT
B25: AAAUGGA (DNA:RNA)
RNA: B1 RNA with C26A, C27A, C29G, U30G, U31A
DNA 1: CAATCTGAATTCCGGTCTCCC
DNA 2: TGGTGGCTACGACGGGATT
B26: AUGGAAA (DNA:RNA)
RNA: B1 RNA with C26U, C27G, U28G, C29A, U30A, U31A
DNA 1: CAATCTGAATTCCGGTCTCCC
DNA 2: TGGTGGCTACGACGGGATT
B27: UUCUGCA (DNA:RNA)
RNA: B1 RNA with A25U, C26U, C29G, U30C, U31A
DNA 1: CAATCTGAATTCCGGTCTCCC
DNA 2: TGGTGGCTACGACGGGATT
B28: UUGAGAA (DNA:RNA)
RNA: B8 RNA with A26U, C28A, U29G, C30A, C31A
DNA 1: CAATCTGAATTCCGGTCTCCC
DNA 2: TGGTGGCTACGACGGGATT
B29: AGUUAAA (DNA:RNA)
RNA: B1 RNA with C26G, C27U, C29A, U30A, U31A
DNA 1: CAATCTGAATTCCGGTCTCCC
DNA 2: TGGTGGCTACGACGGGATT
B30: UGAUGUC (DNA:RNA)
RNA: B1 RNA with A25U, C26G, C27A, C29G, U31C
DNA 1: CAATCTGAATTCCGGTCTCCC
DNA 2: TGGTGGCTACGACGGGATT
B31: GUCGUUU (DNA:RNA)
RNA: B1 RNA with A25G, C26U, U28G, C29U
DNA 1: CAATCTGAATTCCGGTCTCCC
DNA 2: TGGTGGCTACGACGGGATT

molecular target: T1, RBFOX1 RRM RbFoxmut (Fox-RRM*); assay: EMSA; HiTS-Eq, 1 nM pool, 10 min; buffer printed only for the single-RNA assays: 10 mM Tris pH 7.5, 150 mM NaCl, 3.4 mM EDTA, 0.001% NP-40, 30 C; conditions: tags: His6 N-terminal (pET28a); label: 5' 32P
Summary of the method: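 A pool of RNA with 7 randomized nucleotides, 5′-radiolabelled and with DNA-annealed flanks, was equilibrated at 1 nM for 10 min in 50 µL with purified RbFox RRM, wild type or mutant, across increasing protein concentrations. Free RNA was separated by 8% native PAGE, excised, reverse-transcribed, barcoded by PCR and sequenced. Relative association constants were obtained from read-count changes of each RNA species versus the control reaction and normalised to the cognate motif.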

| Binder | binding signal |
| --- | --- |
| B1 | 0.0684 KA relative to UGCAUGU |
| B2 | 0.0916 KA relative to UGCAUGU |
| B3 | 0.126 KA relative to UGCAUGU |
| B4 | 0.171 KA relative to UGCAUGU |
| B5 | 0.103 KA relative to UGCAUGU |
| B6 | 0.139 KA relative to UGCAUGU |
| B7 | 0.0762 KA relative to UGCAUGU |
| B8 | 0.0703 KA relative to UGCAUGU |
| B9 | 0.0677 KA relative to UGCAUGU |
| B10 | 0.0446 KA relative to UGCAUGU |
| B11 | 0.122 KA relative to UGCAUGU |
| B12 | 0.0633 KA relative to UGCAUGU |
| B13 | 0.128 KA relative to UGCAUGU |
| B14 | 0.0905 KA relative to UGCAUGU |
| B15 | 0.0926 KA relative to UGCAUGU |
| B16 | 0.0924 KA relative to UGCAUGU |

| Binder | binding signal |
| --- | --- |
| B17 | 0.0663 KA relative to UGCAUGU |
| B18 | 0.113 KA relative to UGCAUGU |
| B19 | 0.105 KA relative to UGCAUGU |
| B20 | 0.159 KA relative to UGCAUGU |
| B21 | 0.0754 KA relative to UGCAUGU |
| B22 | 0.111 KA relative to UGCAUGU |
| B23 | 0.0616 KA relative to UGCAUGU |
| B24 | 0.0856 KA relative to UGCAUGU |
| B25 | 0.0603 KA relative to UGCAUGU |
| B26 | 0.0889 KA relative to UGCAUGU |
| B27 | 0.17 KA relative to UGCAUGU |
| B28 | 0.089 KA relative to UGCAUGU |
| B29 | 0.109 KA relative to UGCAUGU |
| B30 | 0.207 KA relative to UGCAUGU |
| B31 | 0.108 KA relative to UGCAUGU |
